In PMC4336329 (PLoS ONE, 2015):
The whole screen tested about 310,000 compounds, of which about 14,000 (4.5%) showed an effect of 50% or more. Effects have a minus sign here. This is one part of the list.

Biological target: human ether-à-go-go-related gene (hERG) potassium channel (human, UniProt Q12809)
Assay: primary screen, population patch clamp on CHO cells stably expressing hERG
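Also: peak tail current of the secondary pulse compared with the same well before compound.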

Sequence of human ether-à-go-go-related gene (hERG) potassium channel (Q12809 whole entry, looked up): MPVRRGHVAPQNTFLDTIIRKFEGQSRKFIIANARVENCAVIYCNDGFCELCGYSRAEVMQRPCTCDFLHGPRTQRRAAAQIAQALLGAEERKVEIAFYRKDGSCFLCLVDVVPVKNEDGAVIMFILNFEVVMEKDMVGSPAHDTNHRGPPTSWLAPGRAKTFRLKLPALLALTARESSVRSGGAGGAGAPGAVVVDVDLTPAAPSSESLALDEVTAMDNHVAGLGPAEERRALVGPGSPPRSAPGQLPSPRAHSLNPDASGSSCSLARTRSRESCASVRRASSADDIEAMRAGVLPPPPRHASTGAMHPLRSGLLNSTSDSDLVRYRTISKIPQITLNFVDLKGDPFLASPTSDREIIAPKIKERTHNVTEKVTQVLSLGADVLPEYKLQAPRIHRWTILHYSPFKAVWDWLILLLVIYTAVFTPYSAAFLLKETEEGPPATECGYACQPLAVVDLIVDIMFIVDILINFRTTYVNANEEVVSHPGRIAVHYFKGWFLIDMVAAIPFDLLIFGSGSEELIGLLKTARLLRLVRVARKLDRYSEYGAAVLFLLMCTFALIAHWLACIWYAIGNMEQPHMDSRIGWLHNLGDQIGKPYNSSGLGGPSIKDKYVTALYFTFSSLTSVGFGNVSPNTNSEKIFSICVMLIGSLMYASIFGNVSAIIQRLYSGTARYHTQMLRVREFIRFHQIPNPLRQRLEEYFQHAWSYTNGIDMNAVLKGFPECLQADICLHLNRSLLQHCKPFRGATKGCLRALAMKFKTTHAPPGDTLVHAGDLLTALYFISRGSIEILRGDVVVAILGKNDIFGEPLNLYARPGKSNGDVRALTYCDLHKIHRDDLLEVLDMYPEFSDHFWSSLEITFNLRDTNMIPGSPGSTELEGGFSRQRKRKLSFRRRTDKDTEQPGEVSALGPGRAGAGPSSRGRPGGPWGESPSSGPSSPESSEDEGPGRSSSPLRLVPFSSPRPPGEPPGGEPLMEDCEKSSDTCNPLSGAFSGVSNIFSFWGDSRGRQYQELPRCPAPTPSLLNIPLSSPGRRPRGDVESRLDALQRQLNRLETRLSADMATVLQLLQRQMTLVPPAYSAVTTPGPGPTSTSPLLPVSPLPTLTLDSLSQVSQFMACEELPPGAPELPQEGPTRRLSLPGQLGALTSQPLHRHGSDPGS

| Compound | hERG current change (%, negative = inhibition) at 10uM [%] |
| --- | --- |
| CCc1nccn1CCC(=O)N1CCc2c([nH]c3ccccc23)C1CC(C)C (centres unmarked) | -53.9 |
| O=[N+]([O-])c1ccc(OC/C=C2\Oc3ccc([N+](=O)[O-])cc3C2N2CCOCC2)cc1 (centres unmarked) | -71.7 |
| O=C(Cc1ccccc1)NCC(=O)OCC(=O)c1ccc(OC(=O)c2ccccc2)cc1 | 5.43 |
| Cc1ccccc1NC(=S)Nc1ccc(Br)cc1 | -6.93 |
| O=C1CCC/C(=N\NC(=O)c2ccc(NS(=O)(=O)c3ccc(Br)cc3)cc2)C1 | 7.87 |
| COC(=O)c1ccc(-c2ccc(OC)c([C@H]3[C@H]4C=CC[C@@H](C)[C@@H]4C(=O)N3Cc3ccccc3)c2)cc1 | -5.98 |
| CCOc1ccc(CCNC(=O)CSc2cc(=O)n(CC)c3ccccc23)cc1OCC | -4.11 |
| Cc1cccc2c(=O)c(Br)c(C)n(Cc3ccccc3)c12 | 12.3 |
| Cc1c(Cl)cccc1NC(=O)CSC(N)=O | 16.8 |
| O=C(NCCn1cc(SCc2ccccc2F)c2ccccc21)c1c(F)cccc1F | 11.1 |
| O=S(=O)(c1cccc(-c2nnc(SCc3nc4ccccc4s3)o2)c1)N1CCOCC1 | -31.6 |
| CC(C)OC(=O)CSc1nc(Cc2ccccc2)nc2ccccc12 | 6.28 |
| CC(C)Oc1ccc(OCCn2c(S(=O)(=O)O)nc3c(N)ncnc32)cc1 | 15.9 |
| O=C(Nc1nsc(-c2ccccc2)n1)c1cccs1 | -16.6 |
| Cc1cccc(Oc2coc3cc(O)ccc3c2=O)c1 | -11.8 |
| COc1cc(C(=O)Nn2c(CC(C)C)nc3ccccc3c2=O)cc(OC)c1OC | 10.6 |
| Cc1cccc(N2C(=O)/C(=C/c3ccc(CN(CCC#N)S(C)(=O)=O)o3)C(=O)NC2=S)c1 | 16.1 |
| O=C(CCCn1c(=S)[nH]c2cc3c(cc2c1=O)OCO3)N1CCN(c2ccc(F)cc2)CC1 | -6.78 |
| COC(=O)C1=C(c2ccc(F)cc2F)C[C@@H]2CC[C@H]1N2C(=O)NCCNC(C)=O | 23.9 |

| Compound | hERG current change (%, negative = inhibition) at 10uM [%] |
| --- | --- |
| C#CCN1C(=O)C(O)(CC(=O)c2ccc3c(c2)OCCO3)c2ccccc21 (centres unmarked) | 8.8 |
| Cc1cc(C)n(CC(C)NCc2cn[nH]c2-c2ccc(C)c(C)c2)n1 (centres unmarked) | -35.7 |
| COc1ccccc1C(=O)COC(=O)c1c(-c2ccccc2)noc1C | -31.3 |
| Cl.c1ccc2c(c1)N1CCCN=C1N2CCN1CCCCC1 | -62.8 |
| Cc1cc(=O)oc2cc(OCC(O)CN3CCc4ccccc4C3)ccc12 (centres unmarked) | -31.7 |
| Cc1cc2cc(CNC(=O)C3CCCC3)ccc2n1C | 2.82 |
| COc1ccc(C2CC(c3cccs3)n3nc(N)nc3N2)cc1 (centres unmarked) | -36.6 |
| CC(C)c1nnc(NC(=O)CCC(=O)N2CCC(Cc3ccccc3)CC2)s1 | -8.82 |
| CCOc1cc(OCC)nc(S(C)(=O)=O)n1 | -0.891 |
| Cc1cc(C(=O)Nc2cccc(-c3ccc(N4CCOCC4)nn3)c2)ccc1[N+](=O)[O-] | -38.5 |
| O=S(=O)(NCC1CCCO1)c1ccc(Cl)nc1 (centres unmarked) | -2.03 |
| CCOc1cc(CNc2ncc(-c3ccc(OC)cc3)n2C)ccc1O.O=C(O)C(=O)O | -48.3 |
| O=C(Nc1cccc2cccnc12)C1CCCC1 | -27.6 |
| O=C1C(NS(=O)(=O)c2cccs2)=C(N2CCN(c3ccccc3)CC2)C(=O)c2ccccc21 | 12.3 |
| O=C(c1cc(Cl)nc2ccccc12)N1CCN(Cc2ccc3c(c2)OCO3)CC1 | -37.9 |
| COc1ccccc1CN1C(=O)CNC1=S | 8.84 |
| CN1CCN(c2ccc([N+](=O)[O-])cc2C(=O)c2ccc(Br)cc2)CC1 | -69.5 |
| COc1ccc(Oc2nccc(-c3ccccc3)c2C#N)cc1 | -7.35 |
| Cc1c(NC(=O)c2cc(-c3ccc(O)cc3)on2)c(=O)n(-c2ccccc2)n1C | -11.3 |

| Compound | hERG current change (%, negative = inhibition) at 10uM [%] |
| --- | --- |
| NC(=O)c1c(NC(=O)c2cccc(N3C(=O)CCC3=O)c2)sc2c1CCCCC2 | 8.13 |
| Cc1c(Cl)cccc1NC(=O)CNC(=O)C1CCN(C(=O)Nc2ccccc2)CC1 | 13.6 |
| Cc1ccc(OCCC(=O)Nc2ccc(F)c(Cl)c2)cc1 | 5.65 |
| Cc1ccc(N2CCN(/N=C/C(Cl)=C/c3ccccc3)CC2)cc1 | -5.13 |
| CSc1sc(C)cc1C=O | -1.02 |
| COc1ccc(C(=O)COC(=O)C2CCC(=O)N2)cc1 (centres unmarked) | 10.6 |
| CC(C)(CC(=O)O)CC(=O)N1CCN(c2cc(C(F)(F)F)nc3ccccc23)CC1 | 21.8 |
| CCS(=O)(=O)c1ccc(O)c(NC(=O)c2cc(OC)c(OC)c(OC)c2)c1 | 7.36 |
| COc1ccccc1OCCSc1nc(N)cc(N)n1 | 5.67 |
| Cc1cccc(Nc2ncnc3nc[nH]c23)c1 | -22.9 |
| C/C=C/c1ccc(OCC(=O)NCc2ccccc2OC)c(OC)c1 | -21.9 |
| Cc1cc(NC(=O)c2ccc3c(c2)C(=O)N(c2cccc(C)c2C)C3=O)no1 | 11.1 |
| Cc1nc(NC(=O)C23CCC(C)(C(=O)O2)C3(C)C)sc1C (centres unmarked) | -2.51 |
| CCCCn1c(SCC(=O)/C(C#N)=C(\C)N)nc2ccccc2c1=O | -1.82 |
| CCOP(=O)(OCC)c1nc(-c2cccc3ccccc23)oc1NCc1ccc(OC)cc1 | 2.77 |
| CC(=O)OCC1(C)CN(c2ccccc2)NC1=O (centres unmarked) | 13.7 |
| COc1ccc(CCNC(=O)C2CCCN2C(=O)Nc2ccccc2)cc1OC (centres unmarked) | 14.9 |
| COc1cc(C2=NOC(C(=O)Nc3cccnc3)C2)cc(OC)c1OC (centres unmarked) | 9.72 |
